This is one part of the list.

To fix the notation:
B1: PhoQ; a variant is named by its letters at X, in order, P23837 (parent)
chain: MKKLLRLFFPLSLRVRFLLATAAVVLVLSLAYGMVALIGYSVSFDKTTFRLLRGESNLFYTLAKWENNKLHVELPENIDKQSPTMTLIYDENGQLLWAQRDVPWLMKMIQPDWLKSNGFHEIEADVNDTSLLLSGDHSIQQQLQEVREDDDDAEMTHSVAVNVYPATSRMPKLTIVVVDTIPVELKSSYMVWSWFIYVLSANLLLVIPLLWVAAWWSLRPIEALAKEVRELEEHNRELLNPATTRELTSLVRNLNRLLKSERERYDKYRTTLTDLTHSLKTPLXXLQXXLRSLRSEKMSVSDAEPVMLEQISRISQQIGYYLHRASMRGGTLLSRELHPVAPLLDNLTSALNKVYQRKGVNISLDISPEISFVGEQNDFVEVMGNVLDNACKYCLEFVEISARQTDEHLYIVVEDDGPGIPLSKREVIFDRGQRVDTLRPGQGVGLAVAREITEQYEGKIVAGESMLGGARMEVIFGRQHSAPKDE

In the test the parent is B1. In words: enrichment ratio after two sorts for PhoP signalling (ratio (wild type AVST 3.29)); higher = more functional. The settings on record: with PhoP (E. coli).
LDWV: the enrichment ratio is not above 0.25.

On to FWYK, for which the enrichment ratio was not above 0.25. PPYY: the enrichment ratio is not above 0.25. As to VYSK, the enrichment ratio was not above 0.25. As for FYKA, the figure is not above 0.25. For the variant NVYL, the enrichment ratio is not above 0.25.

LNHS: the enrichment ratio is not above 0.25. In the case of TNYI, the enrichment ratio was determined as 1.36. As for GRKD, the figure is not above 0.25. As for DDVM, the enrichment ratio was not above 0.25. As to RHTS, the enrichment ratio was not above 0.25.

On to PNPT, for which the enrichment ratio is not above 0.25. As to GMPD, the enrichment ratio is not above 0.25. Turning to LCQF, the enrichment ratio was not above 0.25. In the case of KQYK it was not above 0.25; in that of VSAM, 7.08; in that of IKVL, not above 0.25. Take MQIF: the enrichment ratio is not above 0.25. With TPNT, the enrichment ratio is not above 0.25. As for PKPK, the enrichment ratio is not above 0.25. Regarding GTIV, the enrichment ratio was determined as 2.97.

As to HSWQ, the enrichment ratio was not above 0.25. Take ILVE: the enrichment ratio was not above 0.25.

HAEK: the enrichment ratio is not above 0.25. As for GVLK, the figure is 8.59. Turning to EALI, the enrichment ratio is 1.98. For GSHM, the enrichment ratio was found to be 0.822. Turning to RDPQ, the enrichment ratio is not above 0.25. As to SHEE, the enrichment ratio was not above 0.25. Take GIKR: the enrichment ratio is not above 0.25. With SNVP, the enrichment ratio was not above 0.25.

VQHP: the enrichment ratio was not above 0.25.

IDIM: the enrichment ratio is not above 0.25. For ENLV, the enrichment ratio is not above 0.25. On to ALYF, for which the enrichment ratio was not above 0.25. On to IQKC, for which the enrichment ratio is not above 0.25. For HMCC, the enrichment ratio was not above 0.25. With MKYR, the enrichment ratio was not above 0.25. Take DPMG: the enrichment ratio was not above 0.25.

As for QFQD, the enrichment ratio is not above 0.25. On to FDDS, for which the enrichment ratio is not above 0.25. In the case of QVLC it was not above 0.25; in that of GKVA, not above 0.25. With IDEF, the enrichment ratio was not above 0.25. SKWE: the enrichment ratio is not above 0.25. In the case of LICM, the enrichment ratio was not above 0.25. Consider PMGK, for which the enrichment ratio is not above 0.25. Turning to LCNH, the enrichment ratio was not above 0.25. Take IHFP: the enrichment ratio was not above 0.25. In the case of WIFT, the enrichment ratio is not above 0.25. In the case of LKAF it was not above 0.25; in that of FTTD, not above 0.25. In the case of FFKT it was not above 0.25. Consider LGLV, for which the enrichment ratio came to 6.95.

As for KTNP, the enrichment ratio is not above 0.25. Take NCGA: the enrichment ratio was not above 0.25. On to HWHW, for which the enrichment ratio is not above 0.25.

On to YPPG, for which the enrichment ratio is not above 0.25. As for PPPY, the figure is not above 0.25. In the case of IWVM, the enrichment ratio was not above 0.25.

For RLSS, the enrichment ratio is not above 0.25.

As to DFYA, the enrichment ratio is not above 0.25. Regarding SHAM, the enrichment ratio is 8.88. In the case of SGGM it was 8.79; in that of RQPL, not above 0.25. As for IEVE, the figure is not above 0.25. As for VWVG, the enrichment ratio was not above 0.25. In the case of ETGT, the enrichment ratio is not above 0.25. For VQKH, the enrichment ratio is not above 0.25.

As to YQRQ, the enrichment ratio is not above 0.25.

As for FPFT, the enrichment ratio is not above 0.25. In the case of FSMY, the enrichment ratio came to 1.09. In the case of TVEI it was not above 0.25; in that of ATGY, not above 0.25. In the case of LDSV it was not above 0.25. For NKNQ, the enrichment ratio was not above 0.25. On to PRFY, for which the enrichment ratio is not above 0.25. On to VGWY, for which the enrichment ratio is not above 0.25. As for SKNI, the figure is not above 0.25. In the case of APTK, the enrichment ratio was not above 0.25. On to AESH, for which the enrichment ratio was 1.31. For KYMP, the enrichment ratio was not above 0.25. PFNF: the enrichment ratio is not above 0.25.

As to CSTY, the enrichment ratio is not above 0.25. FPTI: the enrichment ratio was not above 0.25. In the case of GVIP, the enrichment ratio is not above 0.25. On to LDDK, for which the enrichment ratio is not above 0.25.

As to RCQS, the enrichment ratio was not above 0.25. Turning to TDWH, the enrichment ratio was 3.25. As for KVRW, the enrichment ratio is not above 0.25. As for ADSN, the enrichment ratio was not above 0.25. On to DSCD, for which the enrichment ratio is not above 0.25. In the case of SYPL, the enrichment ratio was not above 0.25. Regarding NSEW, the enrichment ratio is not above 0.25.

Regarding DFMR, the enrichment ratio is not above 0.25.

Turning to DNCL, the enrichment ratio is not above 0.25. As for GFAQ, the figure is not above 0.25.

With DDNK, the enrichment ratio is not above 0.25. Consider NHCW, for which the enrichment ratio was not above 0.25. With NWYE, the enrichment ratio is not above 0.25. Regarding IYNI, the enrichment ratio was not above 0.25.

GRLG: the enrichment ratio was not above 0.25. Turning to HWCR, the enrichment ratio was not above 0.25. For the variant AGPF, the enrichment ratio is not above 0.25. On to GKWD, for which the enrichment ratio was not above 0.25. As to SEVG, the enrichment ratio came to 25.6.

On to AFIH, for which the enrichment ratio was not above 0.25. In the case of FEPG it was not above 0.25. Turning to LAGI, the enrichment ratio is not above 0.25. ERET: the enrichment ratio was not above 0.25. Turning to PQIH, the enrichment ratio was not above 0.25. Consider ERFD, for which the enrichment ratio is not above 0.25. As for HNSW, the figure is not above 0.25; as for AHDV, not above 0.25. In the case of TMDI it was not above 0.25. With HGVP, the enrichment ratio is not above 0.25. NIMN: the enrichment ratio was not above 0.25. Turning to KVHY, the enrichment ratio was not above 0.25.

Regarding PFHQ, the enrichment ratio is not above 0.25.

Regarding PKTP, the enrichment ratio was not above 0.25. Regarding TPGV, the enrichment ratio was not above 0.25. In the case of DVGA it was not above 0.25; in that of KELA, not above 0.25; in that of VTKD, not above 0.25. As for KMER, the figure is not above 0.25. In the case of KSCK it was not above 0.25; in that of VAVD, not above 0.25.

Consider WYHS, for which the enrichment ratio is not above 0.25.

With TIQM, the enrichment ratio was found to be 48.5. KDFT: the enrichment ratio is not above 0.25.

For the variant WLLP, the enrichment ratio is not above 0.25. Turning to RWNM, the enrichment ratio is not above 0.25. As for PTKI, the figure is not above 0.25; as for WMTW, not above 0.25. As for LRDK, the enrichment ratio is not above 0.25. For the variant EHTC, the enrichment ratio was not above 0.25. As to YEFD, the enrichment ratio was not above 0.25. For the variant NMIH, the enrichment ratio is not above 0.25. For GWTV, the enrichment ratio is not above 0.25. Turning to DRFQ, the enrichment ratio was not above 0.25. On to EYMV, for which the enrichment ratio is not above 0.25. Take TCDQ: the enrichment ratio is not above 0.25. Take RVCI: the enrichment ratio was not above 0.25.

As to FVHR, the enrichment ratio is not above 0.25. On to KSHN, for which the enrichment ratio was not above 0.25.

Take KHVY: the enrichment ratio is not above 0.25. For the variant ICDP, the enrichment ratio was not above 0.25. As for SFPV, the enrichment ratio is not above 0.25.

As for TSKA, the enrichment ratio was not above 0.25. Consider WTLS, for which the enrichment ratio was not above 0.25.

With FYPP, the enrichment ratio was not above 0.25. For the variant LDAI, the enrichment ratio is not above 0.25. On to KLDQ, for which the enrichment ratio was not above 0.25.

The values are drawn from a collection of fitness landscapes (doi:10.1126/science.1257360).
